Hit rate of the full screen: of about 310,000 compounds, about 14,000 (4.5%) showed an effect of 50% or more. Effects have a minus sign here. Some of the results follow.
molecular target: human ether-à-go-go-related gene (hERG) potassium channel (human, UniProt Q12809); assay: primary screen, population patch clamp on CHO cells stably expressing hERG
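Also: peak tail current of the secondary pulse compared with the same well before compound.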

Chain of human ether-à-go-go-related gene (hERG) potassium channel (Q12809 whole entry, looked up): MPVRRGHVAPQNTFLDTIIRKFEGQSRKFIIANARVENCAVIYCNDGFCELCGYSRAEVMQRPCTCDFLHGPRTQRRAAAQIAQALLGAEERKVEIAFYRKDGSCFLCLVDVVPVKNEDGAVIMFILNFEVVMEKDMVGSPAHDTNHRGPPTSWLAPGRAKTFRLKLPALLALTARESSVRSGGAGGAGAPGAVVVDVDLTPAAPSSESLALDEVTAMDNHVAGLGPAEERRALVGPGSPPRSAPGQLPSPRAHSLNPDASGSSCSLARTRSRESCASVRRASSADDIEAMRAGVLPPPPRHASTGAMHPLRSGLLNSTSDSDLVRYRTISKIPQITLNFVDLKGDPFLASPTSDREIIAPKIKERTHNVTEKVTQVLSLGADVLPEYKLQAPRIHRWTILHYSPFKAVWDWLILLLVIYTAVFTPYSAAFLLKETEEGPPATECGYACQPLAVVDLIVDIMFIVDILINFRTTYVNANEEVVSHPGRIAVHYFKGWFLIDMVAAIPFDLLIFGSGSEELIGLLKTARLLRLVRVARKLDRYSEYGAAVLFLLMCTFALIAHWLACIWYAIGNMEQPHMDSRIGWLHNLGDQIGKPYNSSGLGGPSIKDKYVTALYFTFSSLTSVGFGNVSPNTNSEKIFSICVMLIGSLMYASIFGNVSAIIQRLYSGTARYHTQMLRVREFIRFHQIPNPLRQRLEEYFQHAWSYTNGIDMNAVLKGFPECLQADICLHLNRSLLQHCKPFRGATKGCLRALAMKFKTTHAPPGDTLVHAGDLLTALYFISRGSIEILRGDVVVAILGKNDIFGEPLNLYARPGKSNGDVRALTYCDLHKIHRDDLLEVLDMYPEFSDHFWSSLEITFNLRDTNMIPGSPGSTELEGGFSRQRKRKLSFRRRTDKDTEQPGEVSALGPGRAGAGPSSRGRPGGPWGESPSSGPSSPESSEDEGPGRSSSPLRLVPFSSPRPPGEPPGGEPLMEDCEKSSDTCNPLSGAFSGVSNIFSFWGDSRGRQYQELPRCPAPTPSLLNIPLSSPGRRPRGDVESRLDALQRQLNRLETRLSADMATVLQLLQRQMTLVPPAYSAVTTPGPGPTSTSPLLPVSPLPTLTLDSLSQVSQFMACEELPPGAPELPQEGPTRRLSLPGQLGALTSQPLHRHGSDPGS

SMILES	hERG current change (%, negative = inhibition) at 10uM [%]
Cc1ccc(NC(=O)CCCN2C(=O)NC(C)(C)C2=O)cc1	12.5
CSCCC(NC(=O)c1ccc(Cl)cc1Cl)C(=O)NCc1ccncc1 (stereo not drawn)	-25.3
COc1ccc(S(=O)(=O)N(C)c2ccc(C(=O)N3CCCCC3)cc2)cc1	-16.3
Cc1cc(N2Cc3ccccc3C2)ccc1C=O	4.57
CCOc1cc(/C=N/NC(=O)c2ccc(N(C)S(=O)(=O)c3ccccc3)cc2)ccc1OC	-33
Nc1ccc(/C=C/c2ccc3ncccc3c2)cc1	27.5
CCCOc1ccc(/C(O)=C2/C(=O)C(=O)N(CCCOC)C2c2cccnc2)cc1 (stereo not drawn)	-5.91
CSc1nc(O)c(/C=C2\C=Nc3ccccc32)[nH]1	9.12
COCCCN=Cc1c(-c2ccccc2)[nH]n(-c2nc3ccccc3s2)c1=O	-75.1
O=C(Nc1ccccc1N1CCCC1)c1ccc([N+](=O)[O-])o1	5.51
COc1ccc(OCCN2CCN(C(=O)c3ccc(OC)cc3)CC2)cc1	-87.2
CCCC(=O)Nc1cccc2c1CCCC2	10.2
Cc1ccc(S(=O)(=O)N(CC(=O)NCCSc2ccccn2)c2ccc(C)c(C)c2)cc1	-22.4
CC(=O)c1cccc(NS(=O)(=O)c2ccc(-c3cnc(C4CC4)o3)cc2)c1	-0.86
COc1ccccc1C(=O)NC(=S)Nc1ccc(NC(=O)c2cccs2)cc1	-4.54
CN(C)CCSC1c2ccccc2CSc2ccccc21.Cl (stereo not drawn)	-14.2
Cc1ccc2ncnc(NCCCCCC(=O)O)c2c1.Cl	17.4
COc1ccc2[nH]c(C(=O)N(C)Cc3ccccc3)c(C)c2c1	2.51
O=C(C(=O)N1CCOCC1)c1cn(CCOc2ccccc2)c2ccccc12	-18.4
O=C(NCc1ccccn1)c1ccc2nc(-c3ccco3)c(-c3ccco3)nc2c1	-16.3
Cc1cc(C)c2cc(CN(CCCN(C)C)C(=S)NCc3ccccc3)c(=O)[nH]c2c1	-45.4
Cc1ccsc1-c1cc(C(=O)O)c2c(ccc3ccccc32)n1	12
COc1cccc(-n2nnc3c(=O)n(Cc4ccccc4F)cnc32)c1	4.44
CCC(=S)/C=C1\Sc2ccc3ccccc3c2N1CCCS(=O)(=O)[O-].[Na+]	14.6
CC1(C)CCCC2=C1CC1C(=O)N(Cc3cccnc3)C(=O)C1C2 (stereo not drawn)	-5.71

SMILES	hERG current change (%, negative = inhibition) at 10uM [%]
Cc1cc(=O)n2nc(N3CCC(C(=O)NCc4ccco4)CC3)sc2n1	17.9
COc1cccc2sc(NNC(=O)COc3ccccc3)nc12	14.7
Cc1oc2ccc(OC(=O)COc3c(F)c(F)c(F)c(F)c3F)cc2c1C(=O)OC(C)C	14.5
Cc1cccc(-n2c(-c3ccco3)nc3ccccc3c2=O)c1C	-1.87
COc1ccc(CCNC(=O)c2[nH]c(C)c(C(C)=O)c2C)cc1OC	0.0336
CSc1nc(Oc2ccc(Cl)cc2)c2sccc2n1	13.5
CCCCNC(=S)N(CCO)Cc1cc2cc3c(cc2[nH]c1=O)OCCO3	8.09
CCOC(C[n+]1c(-c2ccccc2)cc(C)cc1-c1ccccc1)OCC.[O-][Cl+3]([O-])([O-])[O-]	3.9
OCCCNc1nc(-c2ccc(Cl)cc2)nnc1-c1ccc(Br)cc1	-61.5
Cc1ccc2[nH]c(=O)c(CN(CCCN(C)C)C(=S)NCCc3ccccc3)cc2c1	-42
COc1ccccc1-n1c(SCC(=O)Nc2ccc(F)cc2)nc2c(c1=O)SCC2	-5.18
Cc1ccc(C(=O)Nc2ccc(Cc3ccncc3)cc2)cc1[N+](=O)[O-]	-19.6
CCC1(c2ccccc2)NC(=O)N(CC(=O)Nc2ccc(S(=O)(=O)NC3=NCCCCC3)cc2)C1=O (stereo not drawn)	22.5
COC(=O)CSc1nc2ccc(NC(C)=O)cc2s1	13.4
COc1ccc(NC(=O)CN(C)C(=O)c2sc3cc(Cl)ccc3c2Cl)cc1	-3.61
CCn1nc(NC(=O)c2ccncc2)c2cc3ccc(C)cc3nc21	-3.96
CCOP(=O)(OCC)C(NC(=O)c1ccc(C)cc1)C(Cl)(Cl)Cl (stereo not drawn)	-2.08
O=c1c2cccnc2[nH]c(=S)n1Cc1ccccc1	21.1
Cc1cc(C)c(S(=O)(=O)Nc2cccc(/C=C/C(=O)O)c2)c(C)c1	0.779
Cc1c(C(=O)Nc2ccc(C(=O)O)cc2)cnn1C	17.5
Cc1ccc2c(c1)c1ncnc(N3CCc4ccccc4C3)c1n2C	0.68
COc1ccccc1CNCC(O)(c1ccc(Cl)cc1)c1ccc(Cl)cc1	-13.7
Cc1[nH]c(=O)[nH]c(=O)c1S(=O)(=O)N1CCCC(C(=O)NCc2ccc3c(c2)OCO3)C1 (stereo not drawn)	18
O=c1oc2ccc3ccccc3c2cc1-c1nnc(-c2ccccc2)o1	13.5
COc1ccc(CN2C(=O)c3cccnc3C2=O)cc1S(=O)(=O)NCc1ccco1	18.1

SMILES	hERG current change (%, negative = inhibition) at 10uM [%]
CC1CCc2cc(F)ccc2N1C(=O)CN1C(=O)c2ccccc2C1=O (stereo not drawn)	-2.92
Cc1ccccc1NC(=O)NCCCN1CCCC1=O	22.8
CN1C(=O)C(=Cc2ccccc2OCc2ccccc2Cl)C(=O)N(C)C1=O	12.6
Cc1ccc(N=C2C(=O)Nc3ccccc32)cc1C	7.9
Cc1sc2nc(SCC(=O)Nc3ccc(S(=O)(=O)NCCCC(=O)O)cc3)[nH]c(=O)c2c1C	19.6
CCOc1ccc(S(=O)(=O)Nc2cc(SCC(=O)O)c(O)c3ccccc23)cc1	-0.126
O=C(O)c1ccc(-n2cccc2/C=C2/NC(=O)N(c3ccccc3)C2=O)cc1	5.15
COC(=O)C[C@H]1c2ccccc2S(=O)(=O)N1Cc1ccc(OC)cc1	9.61
Cc1noc(C)c1S(=O)(=O)N1CCC(C(=O)N2CCN(C(=O)c3ccco3)CC2)CC1	11.2
O=C(CSc1nnnn1-c1ccc(O)cc1)NC1CCCCC1	1.35
CCOc1ccc2nc(NCCNC(=O)C(C)(C)C)c(C)cc2c1	-46.1
CCC(C(=O)Nc1ccccc1F)n1nc(C)c2c(C)n(-c3ccccc3)nc2c1=O (stereo not drawn)	-21.6
CCN1CCN(c2cc(C)c3cc(NC(=O)c4ccc(Br)o4)ccc3n2)CC1	-56
CN(C)CCCNc1oc(-c2ccccc2)nc1C#N	-0.779
CCN(CC)CCN(Cc1cc2cc3c(cc2[nH]c1=O)OCCO3)C(=S)NCC(C)C	-4.96
COc1ccc(Cl)cc1S(=O)(=O)N1CCN=C1Cc1ccccc1	-18.9
COCCNC(=S)N/N=C/c1ccc(-c2ccc([N+](=O)[O-])cc2)o1	16.5
CCCn1ncc(CN2CCCC(C(=O)c3cccc(OC(C)C)c3)C2)c1C (stereo not drawn)	-48.8
CCOc1ccc(NC(=O)CC2C(=O)N(CC)C(=S)N2NC(=O)c2ccncc2)cc1 (stereo not drawn)	0.596
CC(C)(C)Nc1nc(OCC(F)(F)F)nc(OCC(F)(F)F)n1	-26.4
O=C(Nc1ccc2c(c1)OCO2)c1c[nH]c(=O)n(-c2ccc(F)cc2)c1=O	15.8
Cc1ccc(NC(=O)CN2CCc3cc4c(cc3C2)OCCCO4)cc1C	6.47
COc1ccc(CNCc2ccc(C)cc2)c(OC)c1.O=C(O)C(=O)O	-31.3
CCOC(=O)/C(=C/c1ccc(F)cc1)NC(C)=O	-7.91
CN(C)C(=O)Oc1ccc(NC(=O)N2CCOCC2)cc1	12.1
